We go through 109 sequences from publication PMC10668032.

The list shows a part of the results. At the low end of the ranking the order means little.

This assay addresses SIX1 homeodomain (reference allele) (UniProt Q15475). Briefly: universal protein binding microarray. The note with it: Universal all-10-mer PBM (8x60K, AMADID 030236), 300 nM GST-tagged protein, Alexa Fluor 488 anti-GST; buffer, salt, pH and temperature not stated; high values mean tight binding; most listed sequences are background and not binding sites; double strand, one strand shown.
As for TGTTCAAA, the binding signal is -0.162 E-score.

As to CTCCCTAA, the binding signal is -0.0339 E-score.

As to AGCCAGAC, the binding signal is -0.175 E-score.

ATCAACCG: the binding signal came out at 0.0632 E-score.

As to AACATCAT, the binding signal was -0.0426 E-score.

In the case of GCCCCAAA, the binding signal was -0.303 E-score.

Turning to GAATTATC, the binding signal came to 0.0845 E-score.

CGCCATTA: the binding signal is -0.171 E-score.

Consider AGATTCGC, for which the binding signal is -0.0636 E-score.

With AATGCTCG, the binding signal was -0.176 E-score.

Take ACGTTGAA: the binding signal is -0.199 E-score.

With CTATACAG, the binding signal is 0.183 E-score.

For the sequence ACTTTCCA, the binding signal was -0.19 E-score.

Regarding AAGTTTAA, the binding signal is -0.122 E-score.

As for AACTCTGG, the binding signal is -0.0692 E-score.

With TCAGGTCA, the binding signal is -0.00983 E-score.

Regarding CACGACAG, the binding signal was -0.0349 E-score.

With GGCCGTAA, the binding signal was -0.207 E-score.

Take GCCCCCAC: the binding signal was -0.145 E-score.

In the case of CCTAAACA, the binding signal is -0.0963 E-score.

For the sequence CGACGACA, the binding signal is -0.0939 E-score.

ACTCTGGG: the binding signal was -0.0596 E-score.

Regarding CCAGTCGG, the binding signal is -0.0339 E-score.

With AAATGTAA, the binding signal is -0.0702 E-score.

Consider GGGCTACA, for which the binding signal was -0.0372 E-score.

With CGCTTTAA, the binding signal is -0.0481 E-score.

As for CAGTACGC, the binding signal was -0.0446 E-score.

Take GCATAGGC: the binding signal is -0.222 E-score.

On to CAGAGAAG, for which the binding signal was -0.0527 E-score.

Turning to CCTTAGGC, the binding signal is -0.161 E-score.

Turning to TCTATGAA, the binding signal came out at 0.00915 E-score.

As to ACAGCTGT, the binding signal is -0.132 E-score.

Regarding CCATTCTA, the binding signal was -0.0599 E-score.

Take ACCATTCA: the binding signal was -0.214 E-score.

Consider ACGTATAT, for which the binding signal came to 0.271 E-score.

On to GTGCACCA, for which the binding signal was -0.2 E-score.

With AAATTACA, the binding signal was -0.296 E-score.

CCATAGCG: the binding signal was -0.141 E-score.

With CTAAGTGC, the binding signal was -0.189 E-score.

Consider ACCCGAGT, for which the binding signal amounted to 0.197 E-score.

On to GCGTGCAC, for which the binding signal is -0.239 E-score.

Regarding CAGTCCGA, the binding signal is -0.0927 E-score.

Consider GAACTATA, for which the binding signal was 0.0528 E-score.

Take CTTTTCTC: the binding signal is -0.281 E-score.

CACTTAAC: the binding signal was -0.22 E-score.

Take CCATTCCC: the binding signal was -0.0216 E-score.

Turning to AGTCCTAT, the binding signal was found to be 0.0324 E-score.

ACGCTCAA: the binding signal is -0.121 E-score.

With CCATGATA, the binding signal came to 0.376 E-score.

As to ATATATAC, the binding signal is 0.373 E-score.

For AATGAGGC, the binding signal was -0.146 E-score.

Take AGTTACCA: the binding signal was 0.00423 E-score.

ATTCGAGG: the binding signal was -0.0529 E-score.

For ACCGCCAT, the binding signal was -0.144 E-score.

With CACGTCAA, the binding signal was -0.136 E-score.

For the sequence ATTTGTCC, the binding signal is -0.0424 E-score.

For ATACCACA, the binding signal was found to be 0.3 E-score.

As to ACTATGGG, the binding signal was determined as 0.0372 E-score.

Turning to TACTACAA, the binding signal turned out to be 0.126 E-score.

In the case of ATCACCTG, the binding signal came out at 0.33 E-score.

As to ACGGCAAG, the binding signal was -0.175 E-score.

On to ATCACAGC, for which the binding signal amounted to 0.276 E-score.

Take CAACCAAG: the binding signal was -0.109 E-score.

Regarding CCGGGCAC, the binding signal is -0.189 E-score.

Turning to CCAACAAC, the binding signal is -0.105 E-score.

For ATGTGTGC, the binding signal was -0.0665 E-score.

For the sequence ACACCATA, the binding signal is 0.302 E-score.

GAGCTTAA: the binding signal was -0.192 E-score.

Regarding GGTGTAAC, the binding signal is 0.309 E-score.

On to ACTATGCA, for which the binding signal is -0.0409 E-score.

On to CTTCTGTA, for which the binding signal is -0.158 E-score.

As for AATATAGT, the binding signal came out at 0.0448 E-score.

As for ACATTTCC, the binding signal is -0.169 E-score.

As for ATATCGGC, the binding signal stood at 0.394 E-score.

With GGCAGGTA, the binding signal was found to be 0.00479 E-score.

With CAAGTACA, the binding signal was -0.0765 E-score.

For GGCGCAGA, the binding signal was -0.11 E-score.

Consider CACATTAG, for which the binding signal turned out to be 0.0103 E-score.

Turning to ATCGTTAG, the binding signal amounted to 0.271 E-score.

As for AGATAGAG, the binding signal was determined as 0.0387 E-score.

Regarding CTTGACCA, the binding signal was -0.22 E-score.

For CATACAGA, the binding signal is 0.196 E-score.

For the sequence CCTACACA, the binding signal is -0.0703 E-score.

Take CCATAACA: the binding signal was found to be 0.0303 E-score.

With ATTTATAA, the binding signal was found to be 0.0163 E-score.

On to AAATCCGG, for which the binding signal was 0.244 E-score.

Turning to GGCACAGA, the binding signal was -0.112 E-score.

For the sequence CCTGTGCC, the binding signal came to 0.0102 E-score.

As for AACACCAC, the binding signal was found to be 0.255 E-score.

Turning to AAGTAACC, the binding signal is -0.0509 E-score.

Turning to AGCCATAC, the binding signal was determined as 0.0156 E-score.

In the case of GTGTAAAC, the binding signal was -0.00155 E-score.

For AGATTTGA, the binding signal was -0.00405 E-score.

In the case of AATTCTAA, the binding signal was -0.074 E-score.

On to ATAGTCAA, for which the binding signal worked out at 0.0303 E-score.

With GCGAAAAC, the binding signal was -0.349 E-score.

Turning to AATACATA, the binding signal came to 0.242 E-score.

Turning to AGGACTTG, the binding signal is -0.172 E-score.

For GGATGGCA, the binding signal came to 0.154 E-score.

Regarding AAATCTAA, the binding signal was -0.157 E-score.

Take TGGTCTAA: the binding signal is -0.00916 E-score.

As for ACGCGCGT, the binding signal is -0.0496 E-score.

As to GCAGGTCC, the binding signal is -0.0856 E-score.

Consider CCAACCGG, for which the binding signal was found to be 0.00407 E-score.

On to ACGCGGAT, for which the binding signal worked out at 0.297 E-score.

As for ACAGGCAA, the binding signal is -0.237 E-score.

On to GCAAGAGC, for which the binding signal is -0.0465 E-score.

Regarding GTCTGTCA, the binding signal was -0.0514 E-score.

Turning to GTTAACTA, the binding signal was -0.262 E-score.
